# Measurements as given in PMC4336329 (PLoS ONE, 2015).
# The whole screen tested about 310,000 compounds, of which about 2,200 (0.71%) showed an effect of 50% or more. Effects have a minus sign here. The list shows a part of the results.
# Target: human ether-à-go-go-related gene (hERG) potassium channel (human, UniProt Q12809)
# Test: primary screen, population patch clamp on CHO cells stably expressing hERG
# Sequence of human ether-à-go-go-related gene (hERG) potassium channel (Q12809 whole entry, looked up): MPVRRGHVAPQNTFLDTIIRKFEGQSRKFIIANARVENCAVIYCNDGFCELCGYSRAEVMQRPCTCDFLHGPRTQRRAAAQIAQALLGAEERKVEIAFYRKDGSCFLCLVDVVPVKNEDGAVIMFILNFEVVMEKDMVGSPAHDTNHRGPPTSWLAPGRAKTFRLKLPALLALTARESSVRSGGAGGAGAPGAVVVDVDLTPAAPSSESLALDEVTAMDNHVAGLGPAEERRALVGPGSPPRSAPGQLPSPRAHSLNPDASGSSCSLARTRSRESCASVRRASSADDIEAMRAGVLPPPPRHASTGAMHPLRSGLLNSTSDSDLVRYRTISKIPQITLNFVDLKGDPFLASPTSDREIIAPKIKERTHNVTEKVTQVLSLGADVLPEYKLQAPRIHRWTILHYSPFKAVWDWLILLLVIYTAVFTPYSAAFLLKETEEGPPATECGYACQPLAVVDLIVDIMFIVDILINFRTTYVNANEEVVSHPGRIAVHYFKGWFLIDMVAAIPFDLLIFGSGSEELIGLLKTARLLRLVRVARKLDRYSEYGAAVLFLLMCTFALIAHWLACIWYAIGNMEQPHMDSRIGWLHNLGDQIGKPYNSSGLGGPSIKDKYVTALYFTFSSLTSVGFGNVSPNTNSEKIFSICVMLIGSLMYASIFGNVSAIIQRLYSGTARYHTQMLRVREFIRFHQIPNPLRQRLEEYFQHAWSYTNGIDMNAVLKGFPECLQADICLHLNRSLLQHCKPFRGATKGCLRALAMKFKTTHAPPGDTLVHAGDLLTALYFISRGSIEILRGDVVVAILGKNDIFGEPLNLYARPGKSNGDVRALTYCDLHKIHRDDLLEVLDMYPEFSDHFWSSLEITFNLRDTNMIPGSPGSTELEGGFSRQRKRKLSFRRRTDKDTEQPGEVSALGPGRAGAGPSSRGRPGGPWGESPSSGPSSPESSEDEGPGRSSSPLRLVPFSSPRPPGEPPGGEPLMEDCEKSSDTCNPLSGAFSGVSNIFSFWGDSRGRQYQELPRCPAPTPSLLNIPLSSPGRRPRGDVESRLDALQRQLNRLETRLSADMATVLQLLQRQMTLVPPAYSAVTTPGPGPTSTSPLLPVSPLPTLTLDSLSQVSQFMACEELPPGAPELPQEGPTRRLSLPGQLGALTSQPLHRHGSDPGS
row,Compound,"hERG current change (%, negative = inhibition) at 1uM [%]"
1,O=C(Cn1nc(C(F)(F)F)c2c1CCCC2)Nc1ccc2c(c1)OCO2,5.71
2,COC(=O)Cn1nc(-c2ccccc2)c2cc(Cl)ccc21,1.95
3,O=C(O)C(=O)O.c1ccc(CN2CCN(CCOCCOc3cccc4ccccc34)CC2)cc1,5.11
4,CN(C)c1ccc(CNC(=O)C2CCN(S(=O)(=O)c3ccc4c(c3)CCCC(=O)N4)CC2)cc1,12.2
5,Cc1cc(OC(C)C(=O)NCc2ccncc2)c2c(C)c(C)c(=O)oc2c1 (stereo not shown),-17.5
6,c1ccc2c(c1)CCN(c1nc3cc4c(cc3s1)OCCO4)C2,12.1
7,COc1ccc(CCn2nnnc2C(CC(C)C)N2CCN(c3ncccn3)CC2)cc1OC (stereo not shown),-0.474
8,CCc1nnc(NC(=O)CCN2C(=O)c3ccccc3C2=O)s1,-12.6
9,O=C(CSc1nnc(COc2ccccc2)o1)c1ccccc1,8.53
10,O=C(CCNc1n[nH]c(=O)[nH]c1=O)N/N=C\c1cccc(OCc2ccccc2)c1,9.98
11,Cc1cc(C)n(CC(=O)Nc2ccc3c(c2)OCO3)c(=O)c1C#N,-1.67
12,CCN(Cc1ccccc1)S(=O)(=O)c1cc(C(=O)NCC2CCCCC2)ccc1OC,10.2
13,OCc1cc(-c2ccc(Cl)c(Cl)c2)on1,6.67
14,O=C(CC(=O)Nc1cccc(F)c1)Nc1cccc(F)c1,12.6
15,CC(Sc1ccccc1)C(=O)Nc1ccccc1C(=O)N1CCOCC1 (stereo not shown),10.4
16,C=C1C2C[C@@]3([C@@H]1O)[C@@H](C[C@@H]2O)[C@@]12C4[C@@H]3C[C@@H]1[C@@](C)(CC[C@@H]2O)CN4CC,17.8
17,Cc1cccc(NC(=O)CN2C(=O)N/C(=C/c3ccc(-c4cccc(C(=O)O)c4C)o3)C2=O)c1,16.7
18,CCOC(=O)c1c(NC(=O)CSc2nc3cc(Cl)ccc3s2)sc(C(C)=O)c1C,-0.0002
19,COc1ccc(CCNC(=O)c2ccccc2NS(=O)(=O)c2cc(C(=O)O)ccc2OC)cc1,13
20,O=[N+]([O-])c1cccc(-c2nnc3ccccn23)c1,1.97
21,COc1cc(NC(=O)c2cc(S(=O)(=O)N3CCCCC3)c[nH]2)cc(OC)c1,13.1
22,Cc1ccc(NC(=O)Nc2ccc3c(c2)C(=O)OC3)cc1Cl,12.1

row,Compound,"hERG current change (%, negative = inhibition) at 1uM [%]"
1,Cc1cc2[nH]c(=S)[nH]c2cc1C,-15.5
2,CCN(CC)c1ccc(/C=N/NC(=O)c2ccco2)cc1,11.2
3,Cc1cccc(NCc2ccc(N(C)C)cc2)n1,12.2
4,COCc1cc(=O)[nH]c(/N=C(\N)Nc2cccc(C)c2)n1,9.75
5,Cc1c(Cl)cccc1Nc1nc(N)nc(CSc2ncccn2)n1,10.7
6,COc1cc(OC)cc(C(=O)NC(C)CCc2ccccc2)c1 (stereo not shown),8.33
7,Cc1cccc(NC(=O)CSCC(=O)Nc2cc(Cl)ccc2N2CCOCC2)c1,6.68
8,COc1ccc(NC(=O)c2cc(Cl)ccc2NC(=O)c2ccco2)c(OC)c1,-24.5
9,Cc1ccccc1NC(=O)CC1S/C(=N/c2nccs2)N(C)C1=O (stereo not shown),7.1
10,CCC(C)c1ccccc1NC(=O)Cc1coc2cc3c(cc12)CCC3 (stereo not shown),-0.676
11,Brc1ccc(-c2n(-c3ccccn3)c3ccccc3[n+]2-c2ccccn2)cc1.[I-],12.1
12,CC1CCCN(Cc2cccc(Oc3ccccc3)c2)C1 (stereo not shown),-4.81
13,CCn1cc(CNCc2cn[nH]c2-c2cc3ccccc3o2)cn1,13.7
14,COc1ccc(N2CCN(C(=O)COC(=O)Cc3cccc(OC)c3)CC2)cc1,9.34
15,O=C(CC(=O)c1ccccc1O)c1cccc(F)c1,-2.07
16,O=C(COc1ccccc1Cl)NNC(=O)c1ccc2nc[nH]c2c1,6.13
17,CCOC(=O)[C@H]1[C@H]2COc3ccc(Cl)cc3[C@@H]2N2C(=O)CN(Cc3ccc(C)cc3)C(=O)[C@@]12C,13.4
18,COC(=O)NNC(=O)c1ccccc1OC,14.9
19,COc1ccc(/C(C)=N\NC(=O)c2ccc3c(c2)OCO3)cc1OC,-7.69
20,Nc1n[nH]c2cccc(Cl)c12,13.7
21,CC(C)CCC1=NN(C(=O)c2ccco2)C(O)(C(F)(F)F)C1 (stereo not shown),9.45
22,CC(C)CNC(=O)C(=O)NCc1ccccn1,15.3

row,Compound,"hERG current change (%, negative = inhibition) at 1uM [%]"
1,O=C(O)/C=C\C(=O)O.OCCN1CCN(C2CCC(c3ccc(F)cc3)c3ccc(F)cc32)CC1 (stereo not shown),-15.5
2,CC(=O)Nc1ccc(NC(=O)Cc2sc(-c3cccnc3)nc2-c2ccc(C)cc2)cc1,-4.89
3,CCc1nc(SCC(=O)Nc2ccccc2OC)n[nH]1,15.3
4,CCn1nc(C(=O)NNC(=O)COc2ccc(OC)cc2)c2ccccc2c1=O,4.42
5,Cc1nn(-c2ccccc2Cl)c(Cl)c1/C=C(\C#N)C(N)=O,8.67
6,COC(=O)c1cc(S(=O)(=O)Nc2ccc(C)c(F)c2)c[nH]1,-3.6
7,O=C(NCc1ccncc1)c1cc2ccccc2nc1Cl,7.01
8,Nc1cc(=O)[nH]c(SCC(=O)Nc2ccc([N+](=O)[O-])cc2)n1,7.83
9,CCOc1ccc(NC(=O)CC(NC(C)=O)c2ccccc2)cc1S(=O)(=O)N1CCCC1 (stereo not shown),7.96
10,CC1=NN(c2ccccc2)C(=O)C1/C=C1/C(=O)NC(=O)N(c2cc(C)cc(C)c2)C1=O (stereo not shown),12.8
11,Cc1cc(NC(=O)C2CC(=O)N(c3ccccc3)C2)no1 (stereo not shown),10.7
12,COCCOC(=O)C1=C(C)NC(=O)NC1c1cccc(F)c1 (stereo not shown),13.7
13,Fc1ccc(CNC(=S)NCc2ccc(F)cc2)cc1,4.95
14,O/N=C/c1cc(Br)ccc1OCc1ccc(F)cc1,7.49
15,CCOC(=O)CP(=O)(c1ccccc1)c1ccccc1,6.47
16,Cc1ccc(NC(=O)CN(C)C(=O)COc2ccc(C(=O)c3ccc(F)cc3)cc2)cc1,10
17,CCOC(=O)N1CCC(NC(=O)CCc2nc(C3=CCN(C)CC3)no2)CC1,5.15
18,Cc1cc(C)n2ncc(C(=O)Nc3ccc4c(c3)OCO4)c2n1,13.7
19,Nc1ccc(C(=O)OCC(=O)N2CCOCC2)cc1[N+](=O)[O-],14.8
20,CCCn1c(CCC(=O)O)ccc1-c1ccccc1,14.5
21,O=C(CCS(=O)(=O)c1cccc2nonc12)Nc1cccc2c1CCCC2,-8.84
22,Cc1ccc(-c2ccc(=O)n(Cc3ccc(F)cc3)n2)cc1,5.66

row,Compound,"hERG current change (%, negative = inhibition) at 1uM [%]"
1,O=C(CNC(=O)c1cccc(F)c1)N/N=C/c1cc(Br)ccc1OCc1ccccc1,7.27
2,CC(=O)C1C(c2ccncc2)NC(=O)NC1(O)C(F)(F)F (stereo not shown),-6.59
3,CC1(C)Cc2c(sc(NC(=O)C(=O)NCC3CCCO3)c2C(N)=O)CO1 (stereo not shown),15.3
4,Cc1cc(C)nc(NS(=O)(=O)c2ccc(NC(=O)C3CC3)cc2)n1,16
5,CC(C(=O)Nc1c2c(cc3c1CCC3)CCC2)N1CCCC1.Cl.O (stereo not shown),-2.04
6,COc1cccc(C(=O)NCC(C)(C)SCc2ccc(F)cc2)c1,6.06
7,O=C(NNC(=O)c1ccccc1-n1cccc1)c1ccc(Cl)nc1,9.06
8,O=C(N/N=C/c1cccnc1)c1ccccc1OCc1cccc(Br)c1,-0.742
9,O=C(Cc1ccc(Cl)cc1)c1c[nH]c(C(=O)NCCCn2ccnc2)c1,-18.5
10,O=C(OCc1nc2ccccc2s1)c1cnccn1,1.36
11,COc1ccc(/C=C2\SC(=O)N(CC(=O)NC3CCS(=O)(=O)C3)C2=O)cc1 (stereo not shown),14.4
12,Cc1nc2ccc(S(=O)(=O)N3CCCCC3)cc2s1,9.53
13,N#CCC(=O)Nc1ccc(C(=O)NCCC(c2ccccc2)c2ccccc2)cc1,17.5
14,Cc1nnc(SCC2=C(C(=O)O)N3C(=O)C(NC(=O)Cn4nc(C)c(Cl)c4C)C3SC2)s1 (stereo not shown),12.2
15,CCCCCC1CCC(c2ccc(/C(N)=N/O)cc2)CC1 (stereo not shown),15.2
16,CCC(=O)Nc1nc(N)n(-c2ccccc2)n1,16.3
17,COc1ccc(NC(=O)CN(C)C(=O)CNC(=O)C2CCCCC2)cc1,11.3
18,COc1ccccc1NC(=O)C1CCCN1S(=O)(=O)c1ccc(Cl)cc1 (stereo not shown),9.21
19,CC(C)c1cc(C(=O)N2CCCC(C(=O)c3ccc4ccccc4c3)C2)on1 (stereo not shown),7.35
20,CC(=O)Nc1ccc(NC(=O)Cn2cnc3c(nnn3Cc3ccc(F)cc3)c2=O)cc1,16.8
21,CCCc1cc(=S)n2c([nH]c3ccccc32)c1C#N,4.04
22,O=S(=O)(c1ccc(NC(=S)N/N=C/c2ccc(Oc3ccccc3)cc2)cc1)N1CCOCC1,1.74
